Experimental findings from PMC9590495 are described below.

By UniProt entry, the sequences of proteins in these tests, tags left out.
UniProt Q39057: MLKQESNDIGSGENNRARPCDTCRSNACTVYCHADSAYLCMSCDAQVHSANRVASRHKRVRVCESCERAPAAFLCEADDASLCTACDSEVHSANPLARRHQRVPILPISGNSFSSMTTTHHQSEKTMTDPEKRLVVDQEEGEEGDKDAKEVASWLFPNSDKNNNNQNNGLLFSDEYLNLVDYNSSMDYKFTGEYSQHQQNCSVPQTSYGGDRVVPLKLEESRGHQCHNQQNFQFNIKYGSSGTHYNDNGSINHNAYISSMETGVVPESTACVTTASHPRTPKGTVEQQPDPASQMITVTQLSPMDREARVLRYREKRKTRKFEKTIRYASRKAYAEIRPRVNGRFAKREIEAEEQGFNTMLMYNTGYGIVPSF
UniProt Q9SXZ2: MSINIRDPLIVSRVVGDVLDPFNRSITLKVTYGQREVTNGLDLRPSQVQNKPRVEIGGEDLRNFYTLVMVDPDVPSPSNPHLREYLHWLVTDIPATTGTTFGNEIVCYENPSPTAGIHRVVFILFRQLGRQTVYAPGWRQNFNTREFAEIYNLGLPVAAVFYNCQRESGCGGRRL

Assay [1] concerns the target T1, Nuclear Factor YC3 (yeast two-hybrid fusion) (Arabidopsis thaliana) (UniProt Q9ZVL3).
T1 sequence: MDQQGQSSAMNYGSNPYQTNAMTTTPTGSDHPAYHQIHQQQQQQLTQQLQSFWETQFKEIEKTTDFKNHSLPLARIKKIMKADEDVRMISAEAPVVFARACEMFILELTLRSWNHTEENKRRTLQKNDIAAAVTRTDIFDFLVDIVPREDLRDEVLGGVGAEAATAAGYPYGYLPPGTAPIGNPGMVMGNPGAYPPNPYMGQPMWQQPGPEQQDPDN
Kind of assay: two-hybrid; Matchmaker GAL4 Two-Hybrid System 3 (Clontech), pGADT7 and pGBKT7 fusions in yeast strain AH109; growth on selective media lacking Leu, Trp, His and Ade (methods; the legend of Fig. 1 says lacking Trp, Leu and His).

The target in assay [2] is CONSTANS (yeast two-hybrid fusion) (Arabidopsis thaliana) (UniProt Q39057). Described as above.
The target in assay [3] is T2, Nuclear Factor YC9 (yeast two-hybrid fusion) (Arabidopsis thaliana) (UniProt Q8L4B2).
T2 sequence: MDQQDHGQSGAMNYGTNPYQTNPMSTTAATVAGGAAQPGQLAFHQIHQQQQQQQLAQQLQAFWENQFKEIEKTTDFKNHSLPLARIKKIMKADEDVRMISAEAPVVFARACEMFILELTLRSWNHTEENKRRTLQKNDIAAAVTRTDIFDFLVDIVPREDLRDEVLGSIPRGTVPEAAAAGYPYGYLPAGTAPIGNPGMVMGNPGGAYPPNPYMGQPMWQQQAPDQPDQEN
The description is as above.

The target of assay [4] is T3, Nuclear Factor YB2 (yeast two-hybrid fusion) (Arabidopsis thaliana) (UniProt Q9FGJ3).
T3 sequence: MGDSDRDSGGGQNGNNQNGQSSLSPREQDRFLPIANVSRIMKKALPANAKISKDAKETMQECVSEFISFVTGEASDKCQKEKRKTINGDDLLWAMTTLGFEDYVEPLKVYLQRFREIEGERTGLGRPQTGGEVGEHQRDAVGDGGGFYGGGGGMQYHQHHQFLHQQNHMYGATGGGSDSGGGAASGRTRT
Described as above.

Assay [5] has as its target FLOWERING LOCUS T (yeast two-hybrid fusion) (Arabidopsis thaliana) (UniProt Q9SXZ2). The assay is described as above.
Assay [6] has as its target T4, Nuclear Factor YB3 (yeast two-hybrid fusion) (Arabidopsis thaliana) (UniProt O23310).
T4 sequence: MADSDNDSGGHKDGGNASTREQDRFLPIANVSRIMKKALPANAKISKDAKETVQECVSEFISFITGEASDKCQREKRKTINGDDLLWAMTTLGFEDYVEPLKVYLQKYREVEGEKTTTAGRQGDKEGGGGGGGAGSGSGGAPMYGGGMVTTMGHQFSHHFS
Described as above.

Assay [7] has as its target T5, Nuclear Factor YC4 (yeast two-hybrid fusion) (Arabidopsis thaliana) (UniProt Q9FMV5).
T5 sequence: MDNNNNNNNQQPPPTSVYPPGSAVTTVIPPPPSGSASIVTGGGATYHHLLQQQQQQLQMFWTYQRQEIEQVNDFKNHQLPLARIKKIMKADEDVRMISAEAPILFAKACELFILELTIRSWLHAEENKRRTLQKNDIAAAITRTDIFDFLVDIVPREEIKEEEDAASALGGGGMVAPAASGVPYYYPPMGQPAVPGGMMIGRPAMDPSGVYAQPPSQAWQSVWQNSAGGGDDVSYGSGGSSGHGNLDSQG
Described as above.

Assay [8] concerns the target T6, NF-YC3-nEYFP (Arabidopsis thaliana) (UniProt Q9ZVL3).
T6 sequence: T1 sequence
Kind of assay: split reporter; BiFC with nEYFP and cEYFP fusions co-expressed transiently in Arabidopsis mesophyll protoplasts; EYFP fluorescence imaged within 12-18 h by confocal microscopy.

Assay [9] deals with T7, NF-YB3 fused to nEYFP (Arabidopsis thaliana) (UniProt O23310).
T7 sequence: T4 sequence
The assay is described as above.

The target of assay [10] is T8, NF-YC9 fused to nEYFP (Arabidopsis thaliana) (UniProt Q8L4B2).
T8 sequence: T2 sequence
The assay is described as above.

Assay [11] addresses T9, NF-YC3 (construct of the transient Co-IP) (Arabidopsis thaliana) (UniProt Q9ZVL3).
T9 sequence: T1 sequence
Kind of assay: co-IP; plasmid pairs transiently expressed in Arabidopsis mesophyll protoplasts, 12-18 h; total proteins immunoprecipitated with anti-FLAG M2 affinity gel, western blotting. (In general: A western blot detects proteins with antibodies after separation by electrophoresis.)

No constants are given. Whether binding was seen depends on the method and setting. For some assays here: Binding seen in cells or lysates may run through a third protein. Some results given as binding are weak or reduced against the parent protein; the word gives no strength. For some assays here: Tags and fused reporters may be left off the sequences shown.

B1: PROTEIN ARGININE … 6 (yeast two-hybrid fusion) (enzyme, UniProt Q08A71 1-435)
chain: MQSGGDFSNGFHGDHHRELELEDKQGPSLSSFGRAKKRSHAGARDPRGGLANVLRVSDQLGEHKSLETSESSPPPCTDFDVAYFHSYAHVGIHEEMIKDRARTETYREAIMQHQSLIEGKVVVDVGCGTGILSIFCAQAGAKRVYAVDASDIAVQAKEVVKANGLSDKVIVLHGRVEDVEIDEEVDVIISEWMGYMLLYESMLGSVITARDRWLKPGGLILPSHATLYMAPISHPDRYSHSIDFWRNVYGIDMSAMMQLAKQCAFEEPSVESISGENVLTWPEVVKHIDCKTIKIQELDSVTARYKFNSMMRAPMHGFAFWFDVEFSGPASSPAKNTSETSIASGSSSISPSGEVNQKKRTNPSDALVLSTSPESPPTHWQQTIVYFYDPIDVEQDQVIEGSVTLSQSKENKRFMNIHLEYSSAGRSFVKESVMR
Turning to B1, the binding entry in assay [1] was “binds”; in assay [2], “no binding”; in [3] it was “binds”; in assay [4], “no binding”; in assay [5] it was “no binding”; in assay [6], “binds”. Moreover, the binding result in assay [7] was “no binding”.

B2: PRMT6-cEYFP (enzyme, UniProt Q08A71 1-435)
chain: B1 chain
Regarding B2, the binding result in assay [8], in assay [9] and in [10] was “binds” each time.

B3: PRMT6 (construct of the transient Co-IP) (enzyme, UniProt Q08A71 1-435)
chain: B1 chain
Consider B3, for which the binding entry in assay [11] is on record as “binds”.
